# Results published in PubChem BioAssay AID248 (DTP/NCI, 2004).
# Toxic doses and inconclusive results are not listed. Certain results were filed several times, with different values. The list is limited to them. There may be further records. Values that stand side by side do not match, cause unknown; dose, time, organism, isomer or construct need not be as stated for each record. Marks in square brackets tell the records apart. Letters count within one entry.
# Test system: L1210 leukemia ip in BDF1 mice, survival T/C
# Test: NCI In Vivo Anticancer Drug Screen. Data for tumor model L1210 Leukemia (intraperitoneal) in B6D2F1 (BDF1) mice
# Details: endpoint: mean survival time, vehicle: saline, higher = longer survival
compound,measurement,setting,value
COC1OC(CO)C(O)C(NC(=O)N(C)N=O)C1O (stereo not drawn),T/C,"dose: 150.0 mg/kg/injection, schedule: Q01DX009 (ip)",118 % of control [sample A] and 157 % of control [sample B]
Nc1nc2nc(-c3ccccc3)nc(N)c2nc1-c1ccc(N(CCO)CCO)cc1,T/C,"dose: 100.0 mg/kg/injection, schedule: Q01DX001 (ip)",96 % of control and 160 % of control
CCCC(=O)NC1=C(N2CC2)C(=O)C(NC(=O)CCC)=C(N2CC2)C1=O,T/C,"dose: 4.0 mg/kg/injection, schedule: Q01DX Z (ip)",117 % of control and 167 % of control
